Test results from PubChem BioAssay (Tox21).
Values joined by “and” are separate entries in the source; they are usually repeats but may differ in a detail not shown here. Equal entries are not always repeated. Inconclusive means that the source gave no clear call. Such entries were picked first, then a sample of the others. For some of these results: Potencies of inconclusive entries are doubtful fits and often do not repeat. Some compounds were tested as several samples or in several runs, with calls that do not always agree. Active and inactive are the calls of the source. Unless noted, calls follow the shape of the full dose curve.

Legend:
[1] = qHTS assay to identify small molecule antagonists of the sonic hedgehog signaling (Shh) pathway (AID 1259369); also: nearly all actives have a fitted effect of over 45% in size; also: potency is read from the fitted curve at half-maximal effect; as to activity change, negative = inhibition: % is scaled to controls: 0 for no effect and ±100 for the full control effect
Summary of the method: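 Inhibition of Shh signalling is measured as reduced Gli1-response-element firefly luciferase output in an NIH/3T3-derived stable reporter clone stimulated with conditioned medium for 24hr.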

[2] = qHTS assay to identify small molecule agonists of the estrogen receptor beta (ER-beta) signaling pathway - cell viability counter screen (AID 1259380; active = well fitted curve in the direction sought with a large enough effect in the repeat runs; inconclusive = weak or mixed curves; inactive = no such curve, though single readings can be large; an effect the other way counts as inactive or inconclusive; also: nearly all actives have a fitted effect of over 30% in size; also: potency is read from the fitted curve at half-maximal effect)
Summary of the method: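 Same-well viability counter screen. Cells: ER-beta-UAS-bla HEK293T, plated 6 hr before compound, in 2% charcoal-stripped FBS. Compound exposure 16 hr, 37C; viability by CellTiter-Glo luminescence after 30 min at room temperature.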

[3] = qHTS assay to identify small molecule agonists of the estrogen receptor alpha (ER-alpha) signaling pathway in the presence of an antagonist - cell viability counter screen (AID 1259386; active = well fitted curve in the direction sought with a large enough effect in the repeat runs; inconclusive = weak or mixed curves; inactive = no such curve, though single readings can be large; an effect the other way counts as inactive or inconclusive;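 also: potency is read from the fitted curve at half-maximal effect; cells exposed to compounds for 22 h at 37 °C before the viability read; nearly all actives have a fitted effect of over 30% in size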)
Summary of the method: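 Cells are starved of estrogens for 5 days in charcoal-stripped serum, seeded for 24hr and co-treated with ICI-182,780 (10.0nM final) and test compounds. After 22hr at 37C, viability is read as CellTiter-Fluor fluorescence.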

[4] = biological target: Progesterone receptor (Homo sapiens) (UniProt P06401); assay: qHTS assay to identify small molecule agonists of the progesterone receptor (PR) signaling pathway (AID 1346784); conditions: PR-UAS-bla HEK293T, beta-lactamase FRET ratio, 16 h; activation: at 92.4 µM (top of the series) unless noted; also: nearly all actives have a fitted effect of over 30% in size; also: potency is read from the fitted curve at half-maximal effect; as to activation: % is scaled to controls: 0 for no effect and ±100 for the full control effect
UniProt P06401, sequence (P06401 whole entry, looked up): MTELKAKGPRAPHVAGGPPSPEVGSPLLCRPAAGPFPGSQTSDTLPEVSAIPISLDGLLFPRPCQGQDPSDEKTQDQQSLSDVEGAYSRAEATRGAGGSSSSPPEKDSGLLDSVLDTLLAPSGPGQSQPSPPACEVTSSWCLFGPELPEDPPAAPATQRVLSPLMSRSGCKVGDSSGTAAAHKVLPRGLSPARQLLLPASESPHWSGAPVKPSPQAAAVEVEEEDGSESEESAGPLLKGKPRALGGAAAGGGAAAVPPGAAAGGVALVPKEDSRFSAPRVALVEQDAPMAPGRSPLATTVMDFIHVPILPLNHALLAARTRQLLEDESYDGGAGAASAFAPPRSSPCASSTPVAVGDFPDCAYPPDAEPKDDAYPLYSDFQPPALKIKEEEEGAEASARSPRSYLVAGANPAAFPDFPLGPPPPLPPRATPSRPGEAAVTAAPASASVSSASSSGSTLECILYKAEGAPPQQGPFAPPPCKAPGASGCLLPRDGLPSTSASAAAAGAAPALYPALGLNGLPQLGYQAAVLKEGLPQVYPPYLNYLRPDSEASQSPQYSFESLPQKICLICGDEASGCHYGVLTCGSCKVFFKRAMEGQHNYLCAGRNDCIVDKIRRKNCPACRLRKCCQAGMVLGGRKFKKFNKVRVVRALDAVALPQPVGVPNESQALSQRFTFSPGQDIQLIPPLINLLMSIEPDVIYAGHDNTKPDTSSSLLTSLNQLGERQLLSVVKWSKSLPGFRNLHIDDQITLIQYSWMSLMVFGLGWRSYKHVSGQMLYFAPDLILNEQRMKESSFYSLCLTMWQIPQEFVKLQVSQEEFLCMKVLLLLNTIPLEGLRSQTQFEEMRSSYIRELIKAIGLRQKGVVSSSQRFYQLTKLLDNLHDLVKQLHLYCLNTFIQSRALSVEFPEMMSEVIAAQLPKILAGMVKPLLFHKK
Summary of the method: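 Fluorescence from LiveBLAzer B/G FRET substrate cleavage (2 hr, RT) reported PR activation in PR-UAS-bla HEK 293T cells treated 16 hr at 37C/5% CO2 with compounds; medium contained 2% charcoal-stripped FBS.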

[5] = biological target: Progesterone receptor (Homo sapiens) (UniProt P06401); assay: qHTS assay to identify small molecule antagonists of the progesterone receptor (PR) signaling pathway (AID 1346795; active = well fitted inhibition curve with a large enough effect in the signal ratio in the repeat runs, not every such curve was filed as active; inconclusive = weak or mixed curves; the % refers to the signal ratio; also: potency is read from the fitted curve at half-maximal effect; as to activity change, negative = inhibition: % is scaled to controls: 0 for no effect and ±100 for the full control effect); conditions: PR-UAS-bla HEK293T, beta-lactamase FRET ratio, 16 h; activity change, negative = inhibition: at 92.4 µM (top of the series) unless noted
Summary of the method: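 Fluorescence intensity measured 2 hr after adding beta-lactamase FRET substrate to PR-UAS-bla HEK293T cells that had been co-treated 16 hr with compound and 1 nM R5020 (final concentration) in 2% charcoal-stripped FBS.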

[6] = qHTS assay to identify small molecule antagonists of the progesterone receptor (PR) signaling pathway - cell viability counter screen (AID 1346798; active = well fitted curve in the direction sought with a large enough effect in the repeat runs; inconclusive = weak or mixed curves; inactive = no such curve, though single readings can be large; an effect the other way counts as inactive or inconclusive; also: potency is read from the fitted curve at half-maximal effect; nearly all actives have a fitted effect of over 50% in size)
Summary of the method: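 CellTiter-Glo luminescence; PR-UAS-bla HEK293T, 3,000 cells/well; compound + R5020, 16 hr, 37C/5% CO2; 30 min RT before read.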

[7] = qHTS assay to identify small molecule agonists of the progesterone receptor (PR) signaling pathway - cell viability counter screen (AID 1346799); also: nearly all actives have a fitted effect of over 45% in size; also: potency is read from the fitted curve at half-maximal effect
Summary of the method: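 In parallel with the beta-lactamase readout, cytotoxicity toward PR-UAS-bla HEK293T cells was measured by CellTiter-Glo luminescence following 16 hr compound incubation in 2% charcoal-stripped FBS medium.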

[8] = qHTS assay to identify small molecule antagonists of the TGF-beta/Smad signaling pathway - cell viability counter screen (AID 1346824; active = well fitted curve in the direction sought with a large enough effect in the repeat runs; inconclusive = weak or mixed curves; inactive = no such curve, though single readings can be large; an effect the other way counts as inactive or inconclusive; also: potency is read from the fitted curve at half-maximal effect; nearly all actives have a fitted effect of over 50% in size)
Summary of the method: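 Cytotoxicity counter-screen run in the same wells as the beta-lactamase Smad reporter read: CellTiter-Glo luminescence after 30 min at room temperature. HEK 293T SBE-bla cells had 5 hr compound exposure at 37 C with TGF-beta1 (0.25 ng/mL stock).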

[9] = biological target: Estrogen receptor beta (Homo sapiens) (UniProt Q92731); assay: qHTS assay to identify small molecule antagonists of the estrogen receptor beta (ER-beta) signaling pathway (AID 1259378; active = well fitted inhibition curve with a large enough effect in the signal ratio in the repeat runs, not every such curve was filed as active; inconclusive = weak or mixed curves, or effect the other way; inactive = no such curve, though single readings can be large or run the other way; the % refers to the signal ratio; also: % is scaled to controls: 0 for no effect and ±100 for the full control effect); conditions: ER-beta-UAS-bla HEK293T, beta-lactamase FRET ratio, 16 h; activity, negative = inhibition: at 92.4 µM (top of the series) unless noted
UniProt Q92731, sequence (Q92731 whole entry, looked up): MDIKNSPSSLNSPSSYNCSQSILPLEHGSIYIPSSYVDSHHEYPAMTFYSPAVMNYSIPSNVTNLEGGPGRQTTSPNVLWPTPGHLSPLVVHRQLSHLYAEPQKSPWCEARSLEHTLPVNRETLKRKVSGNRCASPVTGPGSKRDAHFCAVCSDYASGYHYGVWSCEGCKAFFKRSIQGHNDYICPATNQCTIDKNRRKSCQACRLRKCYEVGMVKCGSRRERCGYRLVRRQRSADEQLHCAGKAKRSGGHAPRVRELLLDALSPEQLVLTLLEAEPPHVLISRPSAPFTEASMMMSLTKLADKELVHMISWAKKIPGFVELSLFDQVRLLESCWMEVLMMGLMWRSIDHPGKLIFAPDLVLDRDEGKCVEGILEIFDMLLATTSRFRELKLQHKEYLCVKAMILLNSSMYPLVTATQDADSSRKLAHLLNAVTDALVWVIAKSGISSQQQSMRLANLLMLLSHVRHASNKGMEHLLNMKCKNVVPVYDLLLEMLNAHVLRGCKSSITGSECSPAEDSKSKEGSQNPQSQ
Summary of the method: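 Antagonist mode: compounds added to beta-lactamase reporter HEK293T ER-beta-UAS cells stimulated with E2 (1nM final), 16 hr at 37C. LiveBLAzer B/G FRET substrate, 2 hours room temperature, fluorescence read-out.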

[10] = qHTS assay to identify small molecule agonists of the androgen receptor (AR) signaling pathway in the presence of an antagonist - cell viability counter screen (AID 1259379; active = well fitted curve in the direction sought with a large enough effect in the repeat runs; inconclusive = weak or mixed curves; inactive = no such curve, though single readings can be large; an effect the other way counts as inactive or inconclusive; also: potency is read from the fitted curve at half-maximal effect; nearly all actives have a fitted effect of over 25% in size)
Summary of the method: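 Fluorescence from CellTiter-Fluor, added after 15 hr and read 1 hr later, gave cell viability. Cells were MDA-kb2 exposed to compounds (15 concentrations) in the presence of 3.0uM nilutamide at 37C, 0% CO2.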

[11] = qHTS assay to identify small molecule antagonists of the estrogen receptor beta (ER-beta) signaling pathway - cell viability counter screen (AID 1259382; active = well fitted curve in the direction sought with a large enough effect in the repeat runs; inconclusive = weak or mixed curves; inactive = no such curve, though single readings can be large; an effect the other way counts as inactive or inconclusive; also: potency is read from the fitted curve at half-maximal effect; nearly all actives have a fitted effect of over 55% in size)
Summary of the method: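 Following a 6 hr plating period, HEK293T cells carrying a UAS-driven beta-lactamase reporter under ER-beta control received compounds and 1nM E2 (final). After 16 hr at 37C and 2 hr substrate loading, CellTiter-Glo luminescence indicated viability.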

[12] = biological target: Thyrotropin receptor (Homo sapiens) (UniProt P16473); assay: qHTS assay to identify small molecule antagonists of the thyroid stimulating hormone receptor (TSHR) signaling pathway (AID 1259385); conditions: TSHR-HEK293 cAMP HTRF, TSH-stimulated antagonist mode; activity change, negative = inhibition: at 92.4 µM (top of the series) unless noted; also: nearly all actives have a fitted effect of over 20% in size; also: potency is read from the fitted curve at half-maximal effect
UniProt P16473, sequence (P16473 whole entry, looked up): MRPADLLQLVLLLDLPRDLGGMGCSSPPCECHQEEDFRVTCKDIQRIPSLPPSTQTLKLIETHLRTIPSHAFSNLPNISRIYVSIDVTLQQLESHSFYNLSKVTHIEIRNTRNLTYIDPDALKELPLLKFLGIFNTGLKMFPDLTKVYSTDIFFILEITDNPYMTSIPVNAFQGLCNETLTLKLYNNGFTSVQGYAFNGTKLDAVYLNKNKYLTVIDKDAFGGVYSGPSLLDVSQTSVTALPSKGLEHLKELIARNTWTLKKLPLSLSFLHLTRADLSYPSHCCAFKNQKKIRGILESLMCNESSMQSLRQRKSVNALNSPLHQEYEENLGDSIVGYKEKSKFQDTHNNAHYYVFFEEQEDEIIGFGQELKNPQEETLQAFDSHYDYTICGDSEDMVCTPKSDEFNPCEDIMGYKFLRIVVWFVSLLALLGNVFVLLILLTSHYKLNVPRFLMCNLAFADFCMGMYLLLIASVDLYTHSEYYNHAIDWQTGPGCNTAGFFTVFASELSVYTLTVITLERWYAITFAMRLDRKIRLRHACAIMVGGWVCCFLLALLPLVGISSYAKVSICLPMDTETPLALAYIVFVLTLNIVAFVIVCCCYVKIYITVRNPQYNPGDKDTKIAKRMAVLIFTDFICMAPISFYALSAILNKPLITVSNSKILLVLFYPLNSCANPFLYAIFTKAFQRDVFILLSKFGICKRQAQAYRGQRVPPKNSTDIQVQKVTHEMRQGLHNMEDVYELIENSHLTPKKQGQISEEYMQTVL
Summary of the method: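 Antagonist mode: compound-treated TSHR-expressing HEK293 cells were stimulated with 1.5 ng/mL TSH (final) in presence of Ro20-1724 for 30 min at RT. HTRF cAMP detection after 1 h; each compound tested at 15 concentrations, triplicate.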
Tags tell the direction and shape of the fitted curve or compound fluorescence and quenching.

Structure (SMILES): CCOCCOC(C)=O
- Potency [1]: inconclusive: 1.22 µM [inhibitor, single point]
- Potency [2]: inconclusive: 0.77 µM [rising, full curve, poor fit]
- Potency [3]: inconclusive: 0.344 µM [cytotoxic, single point]
- Potency [4]: inconclusive: 27.3 µM [rising, full curve, poor fit]
- activity change, negative = inhibition [5]: inconclusive: 4.18%
- Potency [6]: inconclusive: 0.154 µM [rising, partial curve, poor fit]
- Potency [7]: inconclusive: 27.3 µM [cytotoxic, single point]
- Potency [8]: inconclusive: 24.5 µM [cytotoxic, single point]

Structure (SMILES): CC(C)OC(=S)S
- Potency [1]: inconclusive: 24.3 µM [inhibitor, full curve, poor fit]
- activity, negative = inhibition [9]: inconclusive: -44.3%
- activation [4]: inconclusive: -16.9%
- Potency [5]: inconclusive: 4.86 µM [rising, full curve]
- Potency [6]: active: 7.7 µM
- Potency [7]: inconclusive: 9.69 µM [cytotoxic, full curve, poor fit]

Structure (SMILES): O=S(=O)(Cl)Cl
- Potency [1]: inactive
- Potency [2]: inactive
- activity change, negative = inhibition [5]: inconclusive: 5.22%

Structure (SMILES): O=C(O)C1(c2ccc3c(c2)OC[C@H](Cc2ccc(-c4ccccc4)cc2)[C@H]3O)CCCC1
- Potency [1]: inconclusive: 61.1 µM [inhibitor, single point]
- Potency [10]: inconclusive: 68.6 µM [cytotoxic, partial curve, poor fit]
- Potency [11]: inconclusive: 27.3 µM [cytotoxic, partial curve]
- Potency [5]: active: 48.6 µM
- Potency [6]: inconclusive: 68.6 µM [cytotoxic, single point]
- Potency [7]: inconclusive: 17.2 µM [cytotoxic, partial curve, poor fit]

Structure (SMILES): CCOc1cc(OP(=S)(OC)OC)nc(CC)n1
- Potency [1]: inconclusive: 68.6 µM [inhibitor]
- Potency [2]: inconclusive: 6.86 µM [cytotoxic, single point]
- activity change, negative = inhibition [12]: inconclusive: -1.01%

Structure (SMILES): CC(=O)[O-].[Tl+]
- Potency [1]: inconclusive: 0.308 µM [inhibitor, full curve, poor fit]
- Potency [11]: active: 38.8 µM
- Potency [5]: inconclusive: 61.5 µM

Structure (SMILES): CC(=O)C=C(C)C
- Potency [1]: inconclusive: 1.43 µM [inhibitor, single point] and inconclusive: 4.33 µM [inhibitor, partial curve, poor fit]
- Potency [2]: inconclusive: 57 µM [rising, partial curve, poor fit]
- Potency [6]: inconclusive: 1.61 µM [cytotoxic, partial curve, poor fit]
- Potency [8]: inconclusive: 34.7 µM [cytotoxic, partial curve, poor fit]

Structure (SMILES): COC(=O)C(C)N(C(=O)Cc1ccccc1)c1c(C)cccc1C (stereo unspecified)
- Potency [1]: inconclusive: 77 µM [inhibitor, single point]
- Potency [5]: inconclusive: 68.6 µM [single point]
- Potency [7]: inconclusive: 24.3 µM [cytotoxic, single point]

Structure (SMILES): COc1ccc(O)c(C(C)(C)C)c1
- Potency [1]: inactive and inconclusive: 30.6 µM [inhibitor, partial curve]
- Potency [5]: inconclusive: 61.3 µM [falling, partial curve, poor fit]
- Potency [7]: inconclusive: 15.4 µM [rising, partial curve]

Structure (SMILES): C=CC(=O)OC(C)(C)C
- Potency [1]: inactive
- Potency [2]: inactive
- Potency [8]: inconclusive: 5.3 µM [cytotoxic, partial curve, poor fit]

Structure (SMILES): CCOP(=S)(OCC)Oc1cc(C)nc(N(CC)CC)n1
- Potency [1]: inconclusive: 15.4 µM [inhibitor, full curve]
- Potency [12]: active: 30.6 µM
- Potency [5]: inconclusive: 19.3 µM [rising, full curve, poor fit]
- Potency [6]: inconclusive: 27.3 µM [cytotoxic, partial curve]

Structure (SMILES): COc1ccc2c3c1O[C@H]1[C@@H](O)C=C[C@H]4[C@@H](C2)N(C)CC[C@@]341
- Potency [1]: inconclusive: 17.3 µM [inhibitor, full curve]
- Potency [2]: inconclusive: 26.9 µM [cytotoxic, full curve]
- Potency [5]: inconclusive: 30.1 µM [partial curve]
- Potency [6]: inconclusive: 21.8 µM [cytotoxic, partial curve, poor fit]

Structure (SMILES): CN(C)CCC#N
- Potency [1]: inconclusive: 1.4 µM [inhibitor, single point] and inactive
- Potency [5]: inactive
- Potency [7]: inactive

Structure (SMILES): C[C@]12CC[C@@H](O)C[C@@H]1CC[C@@H]1[C@@H]2CC[C@]2(C)C(=O)CC[C@@H]12
- Potency [1]: active: 19.3 µM
- Potency [11]: active: 43.3 µM
- Potency [5]: inconclusive: 19.3 µM [rising, partial curve]
- Potency [6]: active: 48.6 µM

Structure (SMILES): CCC(COC(=O)c1cc(OC)c(OC)c(OC)c1)(c1ccccc1)N(C)C (stereo unspecified)
- Potency [1]: inconclusive: 2.11 µM [inhibitor, full curve, poor fit]
- Potency [4]: inconclusive: 33.5 µM [falling, partial curve, poor fit]
- activity change, negative = inhibition [5]: inconclusive: -17% [at 42.5 µM]
- Potency [7]: inconclusive: 26.6 µM [rising, partial curve]
